# Values joined by “and” are separate entries in the source; they are usually repeats but may differ in a detail not shown here. Equal entries are not always repeated. The campaign covered roughly 3,400 compounds. About 840 (25%) were called active. Inconclusive results, whose numbers are uncertain, are shown with a selection of clear calls.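 Rule for the calls: active = fitted half-maximal concentration of signal decrease at or below twice the sample's top tested concentration; inconclusive = flat curve between -70 and -30 percent, or poor fit; inactive = flat within 30 percent, signal rise, or potency above limit.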
# Test: T. gondii growth inhibition with IFN-gamma, dose response, cell-based, ME49Luc, HeLa, luciferase, 72 h (AID 1259418)
# Details: T. gondii ME49Luc in IFN-y HeLa, stronger effect = lower value, -100% = high-dose IFN-γ control wells
compound,measurement,setting,value
CCC(=O)N1CC(=O)N2[C@H](CO)[C@@H](c3ccc(C#CCC(C)C)cc3)[C@H]2C1,max activity,at 19.5 µM unless noted,inconclusive: 35.1% [at 10 µM]
COc1ccccc1NC(=O)N1CCCCN2[C@H](CO)[C@H](c3ccc(-c4cccc(C#N)c4)cc3)[C@@H]2C1,max activity,at 19.5 µM unless noted,inconclusive: 28.2% [at 5 µM]
CCOc1ccc(-c2nc3c(s2)CN(C(=O)Nc2ccc(C)c(C)c2)CC3)cc1,max activity,at 19.5 µM unless noted,inconclusive: -42.2% [at 10 µM]
CN1C(=O)CCc2cc(NC(=O)c3ccc(F)cc3)ccc21,max activity,at 19.5 µM unless noted,inconclusive: 41.1% [at 10 µM]
Cc1ccc(C(=O)N2CCC3(CC2)Nc2cc(F)ccc2-n2cccc23)cc1,max activity,at 19.5 µM unless noted,inactive: 6.63% [at 0.16 µM]
Cc1ccc(S(=O)(=O)N2CCC3(CC2)NCCN=C3NCc2ccc3c(c2)OCO3)c(C)c1,max activity,at 19.5 µM unless noted,inactive: -18.3%
FC(F)(F)c1cccc(N2CCN(c3nc(-c4ccc(Cl)cc4)nc4ccccc34)CC2)c1,max activity,at 19.5 µM unless noted,inactive: -11.2% [at 0.16 µM]
NC(=O)C1(N2CCCCC2)CCN(c2ncc(NC(=O)c3cccc(Cl)c3)cc2C(=O)O)CC1,max activity,at 19.5 µM unless noted,inactive: 5.69%
Cc1ccc(-c2nc(CN3CCN(C(=O)Nc4cc(C)ccc4C)CC3)c(C)o2)cc1,max activity,at 19.5 µM unless noted,inconclusive: 20.1% [at 2.6 µM]
CC(C)C#Cc1ccc([C@H]2[C@@H](CO)N3C(=O)CN(S(=O)(=O)c4ccccc4)C[C@H]23)cc1,max activity,at 19.5 µM unless noted,inactive: -8.27% [at 10 µM]
Cc1ccc(-c2nc3c(s2)CN(S(=O)(=O)c2ccc(Cl)cc2)CC3)cc1,max activity,at 19.5 µM unless noted,inactive: 6.55% [at 10 µM]
CCn1nnc2c(NCCSc3c[nH]c4ccccc34)ncnc21,max activity,at 19.5 µM unless noted,inactive: -13.5% [at 0.68 µM]
C=CCn1c(-c2sc3nc4n(c(=O)c3c2C)CCC4)n[nH]c1=S,max activity,at 19.5 µM unless noted,inconclusive: 52.2%
Cc1ccc(-c2coc(-c3ccc(NC(=O)C4CCCCC4)cc3)n2)cc1,max activity,at 19.5 µM unless noted,inactive: 55.5%
COCCNc1ncnc2c1cnn2-c1ccc(Cl)cc1,max activity,at 19.5 µM unless noted,inconclusive: 173% [at 5 µM]
Cc1ccc(C(=O)Nc2cnc(N3CCC(C(N)=O)(N4CCCCC4)CC3)c(C(=O)O)c2)cc1,max activity,at 19.5 µM unless noted,inconclusive: -23.5% [at 2.6 µM]
Cc1cccc(-c2nc(CSc3nc4c(c(=O)[nH]3)CN(Cc3ccc(F)cc3)CC4)c(C)o2)c1,max activity,at 19.5 µM unless noted,inactive: 16.6% [at 0.16 µM]
CN1CCCN(C(=O)c2cc3c(c4ccccc4n3CC3CC3)n2C)CC1,max activity,at 19.5 µM unless noted,inconclusive: -42.9%
Cc1cccc(Nc2ncnc3c2cnn3-c2ccc(Cl)cc2)c1,max activity,at 19.5 µM unless noted,inconclusive: 53.4% [at 2.6 µM]
COc1ccc(S(=O)(=O)N(Cc2nc(-c3ccc(C)cc3)oc2C)c2ccccc2OC)cc1,max activity,at 19.5 µM unless noted,inconclusive: -31.2%
CC(C)Nc1ncnc2c1cnn2-c1ccccc1,max activity,at 19.5 µM unless noted,inconclusive: -66.4% [at 5 µM] and inconclusive: 258% [at 5 µM]
COc1ccc(CNC2=NCCNC23CCN(S(=O)(=O)c2ccc(Cl)s2)CC3)cc1,max activity,at 19.5 µM unless noted,inconclusive: 44.2%
CSc1ccc(-c2nc3c([nH]2)c(=O)n(C)c(=O)n3C)cc1,max activity,at 19.5 µM unless noted,inconclusive: 40.7%
C=CCNc1ncnc2c1cnn2-c1cccc(C)c1,max activity,at 19.5 µM unless noted,inconclusive: 142% [at 1.35 µM]
O=S(=O)(c1ccc(F)cc1)N1C[C@H]2[C@@H](c3ccccc31)[C@@H](CO)N2Cc1ccccc1Cl,max activity,at 19.5 µM unless noted,inconclusive: 20.7% [at 1.2 µM]
CCOc1ccc(-c2nc3c(s2)CN(S(=O)(=O)c2ccccc2Cl)CC3)cc1,max activity,at 19.5 µM unless noted,inactive: 22.6%
CSc1cccc(NC(=O)COc2nc(C)nc3ccccc23)c1,max activity,at 19.5 µM unless noted,inactive: 16.7% [at 5 µM]
Cc1nc(CCNC(=O)[C@H]2CCCN2S(=O)(=O)c2ccc(CC(C)C)cc2)cs1,max activity,at 19.5 µM unless noted,inconclusive: -48.1% [at 0.68 µM]
CCc1cnc(N2[C@H](C#N)[C@H](c3ccc(C4=CCCCC4)cc3)[C@H]2CO)s1,max activity,at 19.5 µM unless noted,inconclusive: -35.9%
O=S(=O)(c1cccs1)N1CCC2(CC1)NCCN=C2NCc1ccc(F)c(Cl)c1,max activity,at 19.5 µM unless noted,inactive: -41.7%
OC[C@H]1Nc2ccc(C#Cc3ccc(F)cc3)cc2[C@@H]2[C@H]1CCN2Cc1ccc2c(c1)OCO2,max activity,at 19.5 µM unless noted,inconclusive: -49.1%
O=C(Nc1ccc2c(c1)OCO2)N1C[C@@H]2N[C@H](C1)C2c1ccc(C=Cc2ccccc2)cc1 (some centres undefined),max activity,at 0.3 µM,inconclusive: 377%
same,max activity,at 0.6 µM,inconclusive: 320%
same,max activity,at 19.5 µM,inconclusive: -120%
CN(C)S(=O)(=O)N1C[C@@H]2CN(Cc3ccoc3)CCO[C@H]2C1,max activity,at 19.5 µM unless noted,inactive: 25.4%
Cc1ccc(NC(=O)COc2nc(C)nc3ccccc23)c(Br)c1,max activity,at 19.5 µM unless noted,inactive: 23.6%
COc1ccc(OC)c(NC(=O)N2CCc3nc(-c4ccc(C)cc4)sc3C2)c1,max activity,at 19.5 µM unless noted,inactive: 13.3%
CS(=O)(=O)N1CCc2sc(C(=O)Nc3ccc(Cl)cc3)cc21,max activity,at 19.5 µM unless noted,inconclusive: 127%
O=C(NC1CCCC1)N1CCCCN2[C@H](CO)[C@@H](c3ccc(-c4cccnc4)cc3)[C@H]2C1,max activity,at 19.5 µM unless noted,inactive: 11.4%
O=C(c1ccc[nH]1)N1CCC2(CC1)COCCN(c1ncccn1)C2,max activity,at 19.5 µM unless noted,inconclusive: 31.4%
Cc1ccccc1-c1ccc([C@@H]2[C@H](CO)N3C(=O)CN(C(=O)c4ccncc4)C[C@@H]23)cc1,max activity,at 19.5 µM unless noted,inactive: 29.6%
O=C(Nc1cncc(-c2nc3ccccc3o2)c1)c1cccc(Cl)c1,max activity,at 19.5 µM unless noted,inactive: 14.2% [at 0.16 µM]
CN1c2ccc(-c3ccccc3)cc2[C@@H]2[C@@H](CCN2C(=O)NC2CCCCC2)[C@H]1CO,max activity,at 19.5 µM unless noted,inconclusive: 35.1% [at 2.6 µM]
COc1ccc(N(Cc2nc(-c3cccc(Cl)c3)oc2C)S(=O)(=O)c2cccs2)cc1,max activity,at 19.5 µM unless noted,inconclusive: -84.8% [at 5 µM]
c1cnc(N2CCC(Oc3cnccn3)CC2)nc1,max activity,at 19.5 µM unless noted,inactive: 28.4% [at 10 µM]
COc1ccccc1-c1ccc([C@@H]2[C@H](CO)N3CCCCN(C(=O)c4cccnc4)C[C@@H]23)cc1,max activity,at 19.5 µM unless noted,inconclusive: 26.7%
CCc1nc(OCC(=O)Nc2c(C)cccc2CC)c2ccccc2n1,max activity,at 19.5 µM unless noted,inconclusive: 46.4% [at 0.35 µM]
COc1ccc(CCC(=O)N2CCC[C@@H]2C(=O)NCCc2csc(-c3ccccc3)n2)cc1,max activity,at 19.5 µM unless noted,inactive: 15.9% [at 2.6 µM]
Cc1ccc(-c2ccc([C@H]3[C@H]4CN(C(=O)NC(C)C)CC(=O)N4[C@H]3CO)cc2)cc1,max activity,at 19.5 µM unless noted,inconclusive: -46.1% [at 21 µM]
CSc1cccc(NC(=O)Nc2ccc(-c3nc(-c4ccc(C)cc4)co3)cc2)c1,max activity,at 19.5 µM unless noted,inactive: 26.9%
Clc1ccc(CSc2nc(NCCc3ccccc3)c3ccccc3n2)cc1,max activity,at 19.5 µM unless noted,inactive: 29.6% [at 2.6 µM]
CCC(C)NC(=O)Cn1c(=O)c(S(=O)(=O)c2ccccc2)cc2ccccc21 (centres undefined),max activity,at 0.35 µM,inconclusive: -28.2%
same,max activity,at 19.5 µM,inconclusive: 28.6%
CCc1nc(OCC(=O)Nc2cccc(C)c2C)c2ccccc2n1,max activity,at 19.5 µM unless noted,inactive: 34.5%
COc1ccc(C(=O)Nc2ccc(-c3nc(-c4ccc(C)cc4)co3)cc2)cc1,max activity,at 19.5 µM unless noted,inconclusive: -55.4% [at 0.68 µM]
COc1ccccc1-c1nc(Cn2c(=O)c3c(C)cc(C)nc3n(-c3ccccc3)c2=O)c(C)o1,max activity,at 19.5 µM unless noted,inactive: 9.28% [at 2.6 µM]
O=c1[nH]c(=O)n([C@H]2C[C@H](O)[C@@H](CO)O2)cc1F,max activity,at 19.5 µM unless noted,inconclusive: -90.5% [at 0.6 µM]
Cc1nc(CCNC(=O)[C@H]2CCCN2S(=O)(=O)c2cc(C)c(C)cc2C)cs1,max activity,at 19.5 µM unless noted,inconclusive: 12.2% [at 2.6 µM]
COc1ccc(-c2nc(NCC3CCN(Cc4cccc(C)c4)CC3)c3ccccc3n2)cc1,max activity,at 19.5 µM unless noted,inactive: -18.6% [at 2.6 µM]
Cc1nc(-c2ccc(F)cc2)sc1-c1ccc(SCc2cccnc2)nn1,max activity,at 19.5 µM unless noted,inconclusive: 162% [at 1.35 µM]
COc1cccc(S(=O)(=O)N2CCCCN3[C@H](CO)[C@@H](c4ccc(C#CCC(C)C)cc4)[C@@H]3C2)c1,max activity,at 19.5 µM unless noted,inconclusive: 146% [at 0.08 µM]
Cc1noc(C)c1S(=O)(=O)N1CCC(C(=O)NCCc2csc(-c3ccccc3)n2)CC1,max activity,at 19.5 µM unless noted,inconclusive: -43.4% [at 5 µM]
O=C(NC1CCCC1)N1CCCCN2[C@@H](CO)[C@@H](c3ccc(-c4cccnc4)cc3)[C@@H]2C1,max activity,at 19.5 µM unless noted,inactive: 33.9%
O=C(NCc1ccccc1)Nc1ccc(-c2nc(-c3cccc(Br)c3)co2)cc1,max activity,at 19.5 µM unless noted,inconclusive: -39.8% [at 0.16 µM]
COc1ccc(-c2nc(NCC3CCN(Cc4cccc(F)c4)CC3)c3ccccc3n2)cc1,max activity,at 19.5 µM unless noted,inconclusive: 35.3%
Cc1ccccc1-c1ccc2c(-c3ncc(C(=O)NCCN(C)C)s3)noc2c1,max activity,at 19.5 µM unless noted,inconclusive: 14.9% [at 10 µM]
COc1cccc(-c2nc(C)c(-c3ccc(SCc4cccnc4)nn3)s2)c1,max activity,at 19.5 µM unless noted,inconclusive: 293% [at 1.35 µM]
COC12CC(COC(=O)c3cncc(Br)c3)CN(C)C1Cc1cn(C)c3cccc2c13 (centres undefined),max activity,at 19.5 µM unless noted,inconclusive: 19.3%
COc1ccc(-c2nc(Nc3ccc(CN4CCCCC4)cc3)c3ccccc3n2)cc1,max activity,at 19.5 µM unless noted,inactive: 10.9% [at 10 µM]
CSc1ccc(-c2noc(-c3nnn(Cc4nc(-c5cccc(C)c5)oc4C)c3C)n2)cc1,max activity,at 19.5 µM unless noted,inactive: -16.4% [at 0.16 µM]
CCOc1ccc(-c2nc3c(s2)CN(S(=O)(=O)c2cc(F)ccc2C)CC3)cc1,max activity,at 19.5 µM unless noted,inconclusive: -19% [at 0.68 µM]
COc1ccc(-c2nc(N3CCC(C)CC3)c3ccccc3n2)cc1,max activity,at 19.5 µM unless noted,inactive: 21.8%
CCc1nc(OCC(=O)Nc2ccc(Cl)cc2F)c2ccccc2n1,max activity,at 19.5 µM unless noted,inconclusive: -59.7% [at 0.68 µM]
Cc1cc(C)cc(S(=O)(=O)N2CCC3(CC2)NCCN=C3NCc2ccc(C(F)(F)F)cc2)c1,max activity,at 19.5 µM unless noted,inconclusive: 36.4% [at 10 µM]

# Source: PubChem BioAssay AID1259418 (Broad Institute, 2018)
